The text below walks through data of patent US11618753B2 (priority 2018, dated 2023).

Structures are written as SMILES.

In the assay the test system is MLKL phosphorylation, HT29-L23 human colorectal adenocarcinoma cells. The assay is described as follows: cells. The settings on record: read-out: pMLKL HCS Cell Assay (IC50, uM).
Usually IC50 stands for the point on the concentration scale where inhibition reaches its midpoint. Take `COc1ncc(-c2cc(C(F)(F)F)c3c(N)ncnn23)cc1C(=O)N[C@@H]1CN(S(=O)(=O)C(C)C(C)C)C[C@@H]1F` (stereo partly drawn) [Example 1464, 5-[4-amino-5-(trifluoromethyl)pyrrolo[2,1-f][1,2,4]triazin-7-yl]-N-[(3R,4S)-4-fluoro-1-(3-methylbutane-2-sulfonyl)pyrrolidin-3-yl]-2-methoxypyridine-3-carboxamide]: the IC50 was determined as 0.0047 µM.
With `COc1ncc(-c2cc(CN3[C@@H]4CC[C@H]3CC(F)(F)C4)c3c(N)ncnn23)cc1C(=O)N[C@@H]1CN(C(=O)[C@@](C)(O)C(F)(F)F)C[C@@H]1F` [Example 1608, 5-(4-amino-5-{[(1R,5S)-3,3-difluoro-8-azabicyclo[3.2.1]octan-8-yl]methyl}pyrrolo[2,1-f][1,2,4]triazin-7-yl)-N-[(3R,4S)-4-fluoro-1-[(2R)-3,3,3-trifluoro-2-hydroxy-2-methylpropanoyl]pyrrolidin-3-yl]-2-methoxypyridine-3-carboxamide], the IC50 was determined as 0.00059 µM.
With `CCc1c(F)cc(-c2cc(C(F)(F)F)c3c(N)ncnn23)cc1C(=O)N[C@@H]1CN(C(=O)CC(C)(O)C(F)(F)F)C[C@@H]1F` (stereo partly drawn) [Example 653, 5-[4-amino-5-(trifluoromethyl)pyrrolo[2,1-f][1,2,4]triazin-7-yl]-2-ethyl-3-fluoro-N-[(3R,4S)-4-fluoro-1-(4,4,4-trifluoro-3-hydroxy-3-methylbutanoyl)pyrrolidin-3-yl]benzamide], the IC50 was 0.022 µM.
Take `COc1ncc(-c2cc(C(F)(F)F)c3c(N)ncnn23)cc1C(=O)N[C@@H]1CN(S(=O)(=O)C(C)CC(C)C)C[C@@H]1F` (stereo partly drawn) [Example 1465, 5-[4-amino-5-(trifluoromethyl)pyrrolo[2,1-f][1,2,4]triazin-7-yl]-N-[(3R,4S)-4-fluoro-1-(4-methylpentane-2-sulfonyl)pyrrolidin-3-yl]-2-methoxypyridine-3-carboxamide]: the IC50 was found to be 0.016 µM.
With `Nc1ncnn2c(-c3cc(F)cc(C(=O)N[C@@H]4CN(C(=O)C5CC(F)(F)C5)C[C@@H]4F)c3)cc(C(F)(F)F)c12` [Example 1315, 3-[4-amino-5-(trifluoromethyl)pyrrolo-[2,1-f][1,2,4]triazin-7-yl]-N-[(3R,4S)-1-(3,3-difluorocyclobutanecarbonyl)-4-fluoropyrrolidin-3-yl]-5-fluoro-benzamide], the IC50 worked out at 0.052 µM.
Regarding `COc1cc(F)c(-c2cc(C(F)(F)F)c3c(N)ncnn23)cc1C(=O)N[C@@H]1CN(C(=O)C2CC(F)C2)C[C@@H]1F` (stereo partly drawn) [Example 872, 5-[4-amino-5-(trifluoromethyl)pyrrolo[2,1-f][1,2,4]triazin-7-yl]-4-fluoro-N-[(3R,4S)-4-fluoro-1-(3-fluorocyclobutanecarbonyl)pyrrolidin-3-yl]-2-methoxybenzamide], the IC50 is 0.0076 µM.
Under `Nc1ncnn2c(-c3cccc(C(=O)Nc4cnn(Cc5ccccc5)c4)c3)c(F)cc12` [Example 71, 3-{4-amino-6-fluoropyrrolo[2,1-f][1,2,4]triazin-7-yl}-N-(1-benzyl-1H-pyrazol-4-yl)benzamide] stands 0.065 µM; under `Cc1ccc(-c2cc(C(F)(F)F)c3c(N)ncnn23)c(F)c1C(=O)N[C@@H]1CN(C(=O)C2CC2(F)F)C[C@@H]1F` (stereo partly drawn) [Example 754, 3-[4-amino-5-(trifluoromethyl)pyrrolo[2,1-f][1,2,4]triazin-7-yl]-N-[(3R,4S)-1-(2,2-difluorocyclopropanecarbonyl)-4-fluoropyrrolidin-3-yl]-2-fluoro-6-methylbenzamide], 0.016 µM; under `COc1ncc(-c2cc(C(F)(F)F)c3c(N)ncnn23)cc1C(=O)N[C@@H]1CN(CC(O)(C2CC2)C(F)(F)F)C[C@@H]1F` (stereo partly drawn) [Example 1825, 5-(4-amino-5-(trifluoromethyl)pyrrolo[2,1-f][1,2,4]triazin-7-yl)-N-((3R,4S)-1-(2-cyclopropyl-3,3,3-trifluoro-2-hydroxypropyl)-4-fluoropyrrolidin-3-yl)-2-methoxynicotinamide], 0.0033 µM.
